Source: patent publication US20220381657A1, “METHOD FOR PREPARING BIOLOGICAL MATERIAL HAVING EXCELLENT LIGHT-TRANSMITTING PROPERTY” (RIKEN, priority 2016, published 2022)

test system: Serius; settings: Table 1; PBS = 1.00

Point of comparison: NCC1CCCC(CN)C1 (stereo not shown) [#0070, 1,3-Bis(aminomethyl) cyclohexane], “1st quenching assay Relative Fluorescence of Serius” value 0.52. Against it:
- CN1CCCC1 [#1295, 1-Methylpyrrolidine] — higher, 0.66
- Cc1ccnc(C)c1 [#1312, 2,4-Lutidine] — higher, 0.84
- CC1(C)CC(N)CC(C)(CN)C1 (stereo not shown) [#1602, Isophoronediamine] — higher, 0.53
- Tween ® 80 [#1460] — higher, 0.91
- CC(C)CCN [#1038, Isoamylamine] — lower, 0.30
- NCC1CCC(CN)CC1 (stereo not shown) [#0071, 1,4-Bis(aminomethyl) cyclohexane] — higher, 0.56
- Tween ® 40 [#1455] — higher, 0.64
- CN(C)C(=N)N(C)C [#1444, 1,1,3,3-Tetramethylguanidine] — lower, 0.14
- CCCCNCCN [#0422, N-Butylethylenediamine] — higher, 0.68
- CCCCCCCCCS(=O)(=O)[O-].[Na+] [#0870, Sodium 1-nonanesulfonate] — higher, 1.05
- CC(O)CN(CCN(CC(C)O)CC(C)O)CC(C)O (stereo not shown) [Quadrol ®, reference compound] — higher, 0.57
- Cc1cccc(C)n1 [#1008, 2,6-Lutidine] — higher, 0.71
- CCCCCCCCCCS(=O)(=O)[O-].[Na+] [#0625, Sodium 1-decanesulfonate] — higher, 0.93
- CC(C)NCCCN [#1027, N-Isopropyl-1,3-diaminopropane] — higher, 0.55
- CCCCC(O)CO (stereo not shown) [#1051, 1,2-Hexanediol] — higher, 0.84
- OCC(O)c1ccccc1 (stereo not shown) [#1074, 1-Phenylethane-1,2-diol] — higher, 0.58
- CCCCN(CCO)CCO [#0414, N-Butyldiethanolamine] — higher, 0.70
- CCCCCCCCCC(=O)N(C)CC(=O)[O-].[Na+] [#0703, N-Decanoylsarcosine sodium salt] — higher, 1.03
- CC(C)(C)N(CCO)CCO [#0390, N-tert- Butyldiethanolamine] — higher, 0.72
- CCCCCCCCCCCS(=O)(=O)[O-].[Na+] [#1419, Sodium 1-undecanesulfonate] — higher, 1.03

same assay, conditions: Table 3; PBS = 1.00

For CNC(=S)NC [#0637, 1,3-Dimethyl-thiourea], the “1st quenching assay Relative Fluorescence of Serius” value was 1.05.
